Laboratory results as given in PubChem BioAssay AID588855 (National Center for Advancing Translational Sciences (NCATS), 2011).
Among all 410,000 compounds or so, about 5,000 (1.2%) were called active. Inconclusive results, whose numbers are uncertain, are shown with a selection of clear calls. Calls follow the shape of the dose curve; as a rule, active = well fitted inhibition curve with a large enough effect; inconclusive = small, poorly fitted or top-dose-only effect; inactive = no such curve, though single readings can be large or run the other way. Where the call is inconclusive, the potency comes from a doubtful curve fit.

assay: qHTS for Inhibitors of TGF-b; settings: HepG2 CAGA-GFP TGF-b/SMAD3 reporter, GFP fluorescence, 18 h, TGF-beta stimulated, 500 pg/mL final; series mostly up to 46.1 µM; activity, negative = inhibition: at the top concentration; also: nearly all actives have a fitted effect of over 65% in size
How it was run: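 Inhibition was scored as loss of TGF-beta-induced (500 pg/mL final, 18 hours, 37 degrees C) GFP in HEPG2 cells carrying a CAGA-GFP reporter, in DMEM with 1% FBS. Well GFP was summed per cell; Activity was normalised to unstimulated and stimulated DMSO wells, then concentration-response fitting.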
% is scaled to controls: 0 for no effect and ±100 for the full control effect; potency is read from the fitted curve at half-maximal effect; tags tell the direction and shape of the fitted curve.

Question: With `O=c1[nH]c2ccccc2c(O)c1-[n+]1ccccc1` as the molecule, how does the “activity, negative = inhibition” value read?
Answer: inactive: -9.47%

Question: With `COc1ccc(NC(=O)c2ccc(F)cc2)cc1S(=O)(=O)Nc1cc(C)ccc1Br` as the molecule, how does the Potency read?
Answer: inconclusive: 22.4 µM [inhibitor, single point]

Question: Which “activity, negative = inhibition” value does the source give for `CC(C)Cn1c(-c2ccc(F)cc2)n[nH]c1=S` here?
Answer: inactive: -10.5%

Question: For `Clc1ccc(Cn2ncc3c(N4CCCC4)ncnc32)cc1`, which “activity, negative = inhibition” value is on record?
Answer: inactive: 7.17%

Question: For `Fc1ccc(-[n+]2nc(Nc3ccccc3)sc2-c2c(Cl)cccc2Cl)cc1`, which Potency is on record?
Answer: inconclusive: 35.5 µM [inhibitor, single point]

Question: For `CNc1oc(-c2ccc(C)cc2)nc1P(=O)(c1ccccc1)c1ccccc1`, which Potency is on record?
Answer: inconclusive: 35.5 µM [inhibitor, single point]

Question: For `Cc1ccc(C)c(C(=O)Cn2ncc(Cl)c(Cl)c2=O)c1`, which Potency is on record?
Answer: inconclusive: 35.5 µM [inhibitor, single point]

Question: With `Cc1ccc(S(=O)(=O)N(C)C[C@H]2Oc3cc(C#CC4CCCC4)ccc3S(=O)(=O)N([C@H](C)CO)C[C@H]2C)cc1` as the molecule, how does the Potency read?
Answer: inconclusive: 12.6 µM [inhibitor, single point]

Question: With `CCCCCC(=O)N1c2ccccc2C(C)(c2ccccc2)CC1(C)C` (configuration not stated) as the molecule, how does the Potency read?
Answer: inconclusive: 10 µM [inhibitor, single point]

Question: For `Cc1cc(C)cc(SCc2noc(C(=O)NC(C)C)c2C(=O)NC(C)C)c1`, which “activity, negative = inhibition” value is on record?
Answer: inactive: -2.51%

Question: Which “activity, negative = inhibition” value does the source give for `O=C(O)C1C2C=CC(O2)C1C(=O)Nc1ccc(S(=O)(=O)N2CCc3ccccc32)cc1` (configuration not stated) here?
Answer: inactive: -0.696%

Question: With `c1ccc(N(c2ccccc2)c2nc(-n3ccnc3)nc(-n3ccnc3)n2)cc1` as the molecule, how does the Potency read?
Answer: inconclusive: 25.1 µM [inhibitor, single point]

Question: For `CC(C)n1cnc2c(NCc3ccccc3)cc(Cc3ccc(F)cc3)cc21`, which Potency is on record?
Answer: inconclusive: 35.5 µM [inhibitor, partial curve, poor fit]

Question: Which Potency does the source give for `C#CCN1C(=O)C(O)(CC(=O)/C=C/c2ccco2)c2ccccc21` (configuration not stated) here?
Answer: inconclusive: 11.2 µM [inhibitor, single point]

Question: For `COc1ccc(N2CCN(C(=O)CSc3c4c(nc5ccc(Cl)cc35)CCCC4)CC2)cc1`, which Potency is on record?
Answer: inconclusive: 11.2 µM [inhibitor, partial curve, poor fit]

Question: Which Potency does the source give for `CCn1nc(NS(=O)(=O)c2ccc(F)cc2)c2cc3cccc(C)c3nc21` here?
Answer: inconclusive: 35.5 µM [inhibitor, single point]

Question: Which “activity, negative = inhibition” value does the source give for `N#Cc1ccc(OCC(=O)OCC(=O)Nc2ccc(N3CCOCC3)cc2)cc1` here?
Answer: inactive: 0.6%

Question: With `O=C(CN1CCN(c2ccccc2)CC1)Nc1ccccc1C(=O)NCCc1ccccc1` as the molecule, how does the “activity, negative = inhibition” value read?
Answer: inactive: -3.65%

Question: For `CCOC(=O)C1=C[C@@H](C(C)(C)C)N(S(=O)(=O)c2ccc(C)cc2)[C@H]1c1cccc2ccccc12`, which Potency is on record?
Answer: inconclusive: 10 µM [inhibitor, partial curve, poor fit]

Question: Which “activity, negative = inhibition” value does the source give for `COc1cccc(C(=O)C(CCC#N)c2ccccc2)c1` (configuration not stated) here?
Answer: inactive: -0.631%

Question: With `CCNC(=S)N(Cc1ccccc1)Cc1nc2ccccc2c(=O)[nH]1` as the molecule, how does the Potency read?
Answer: inconclusive: 35.5 µM [inhibitor, single point]

Question: With `Cc1oc(-c2ccccc2F)nc1CSCC(=O)N1CCN(c2ccccc2)CC1` as the molecule, how does the Potency read?
Answer: inconclusive: 10 µM [inhibitor, partial curve]

Question: Which “activity, negative = inhibition” value does the source give for `CCC(=O)NC1=C(C#N)C2(CCCC2)Cc2ccccc21` here?
Answer: inactive: -18.5%

Question: For `O=c1c2ccccc2nc(SCc2cccc(F)c2)n1Cc1ccco1`, which Potency is on record?
Answer: inconclusive: 0.891 µM [inhibitor, full curve, poor fit]

Question: For `O=S(=O)(c1ccc(Oc2ccc(Br)cc2F)nc1)N1CCCCC1`, which Potency is on record?
Answer: inconclusive: 11.2 µM [inhibitor, single point]

Question: For `CCOc1ccccc1NC(=O)C1CCN(S(=O)(=O)c2cc(Br)cc3c2N(C(C)=O)CC3)CC1`, which “activity, negative = inhibition” value is on record?
Answer: inactive: -2.57%

Question: Which Potency does the source give for `COc1ccccc1CNC(=S)NCc1ccc(Cl)cc1` here?
Answer: inconclusive: 22.4 µM [inhibitor, partial curve, poor fit]

Question: With `Cc1ccccc1NC(=O)C(=O)N/N=C/c1cccc(Br)c1` as the molecule, how does the Potency read?
Answer: inconclusive: 20 µM [inhibitor, partial curve, poor fit]

Question: For `Cc1ccc(C(=O)NC2CCCc3ccccc32)cc1[N+](=O)[O-]` (configuration not stated), which “activity, negative = inhibition” value is on record?
Answer: inactive: -11%

Question: Which “activity, negative = inhibition” value does the source give for `O=C1COc2cc(S(=O)(=O)CCC(=O)N3CCN(c4ccccc4F)CC3)c(Cl)cc2N1` here?
Answer: inactive: -8.81%

Question: For `CN(C)c1ccc(C=NN2C(=O)CSC2=S)c(Cl)c1`, which “activity, negative = inhibition” value is on record?
Answer: inactive: 10.4%

Question: For `CC1CCc2c(sc3ncn(N)c(=N)c23)C1` (configuration not stated), which Potency is on record?
Answer: inconclusive: 2.24 µM [inhibitor, full curve, poor fit]

Question: Which Potency does the source give for `O=C(Nc1ccc(C2=CN(Cc3ccccc3)CCC2=O)cc1)OCc1ccccc1` here?
Answer: inconclusive: 7.08 µM [inhibitor, partial curve, poor fit]

Question: For `CCOc1ccc(CCNC(=O)Cn2c(-c3cccs3)cc3cc(F)ccc32)cc1OCC`, which Potency is on record?
Answer: inconclusive: 20 µM [inhibitor, single point]

Question: For `CCOC(=O)N1CCN(C(=O)c2cc3c(s2)-c2ccccc2OC3)CC1`, which Potency is on record?
Answer: inconclusive: 35.5 µM [inhibitor, single point]

Question: For `COc1cc(/C=C/C(=O)OCC(=O)NC(=O)NC(C)C)cc(S(=O)(=O)N2CCc3ccccc32)c1OC`, which Potency is on record?
Answer: inconclusive: 28.2 µM [inhibitor, single point]

Question: Which Potency does the source give for `CNC(=S)NN=C(C)c1ccc(OC)cc1O` here?
Answer: inconclusive: 0.631 µM [inhibitor, full curve, poor fit]

Question: For `CCCc1cc(N2CCN(c3ccccc3)CC2)n2cnnc2n1`, which Potency is on record?
Answer: inconclusive: 31.6 µM [inhibitor, single point]

Question: Which Potency does the source give for `CCc1ccc(CN(Cc2ccco2)c2cnc(S(C)(=O)=O)nc2C(=O)Nc2c(C)cccc2C)cc1` here?
Answer: inconclusive: 17.8 µM [inhibitor, single point]

Question: Which Potency does the source give for `O=S(=O)(Nc1cccc2ccccc12)c1ccc2ccccc2c1` here?
Answer: inconclusive: 3.98 µM [inhibitor, partial curve, poor fit]

Question: With `Brc1ccc(CSc2nnc(-c3ccccn3)n2Cc2ccco2)cc1` as the molecule, how does the Potency read?
Answer: inconclusive: 25.1 µM [inhibitor, partial curve, poor fit]

Question: Which “activity, negative = inhibition” value does the source give for `CN(C)c1ccc(/C=C/c2nc3ccccc3c(=O)n2CCO)cc1` here?
Answer: inactive: 22.9%

Question: Which Potency does the source give for `CCc1[nH]nc2c1C(C(C)C)C(C#N)=C(N)O2` (configuration not stated) here?
Answer: inconclusive: 35.5 µM [inhibitor, partial curve, poor fit]

Question: For `OCC1(CCOc2ccccc2)CCN(CCCn2cccn2)CC1`, which “activity, negative = inhibition” value is on record?
Answer: inactive: 6.93%

Question: With `CS(=O)(=O)N1CCC(C(=O)N2CCN(c3cccc(Cl)c3)CC2)CC1` as the molecule, how does the “activity, negative = inhibition” value read?
Answer: inactive: -2.7%

Question: Which Potency does the source give for `COc1ccccc1-c1ccc(C(=O)O)o1` here?
Answer: inconclusive: 5.62 µM [inhibitor, single point]

Question: With `Cc1nc2c(c(=O)n1CCC1=CCCCC1)c1nc3ccccc3nc1n2/N=C/c1ccccc1` as the molecule, how does the “activity, negative = inhibition” value read?
Answer: inactive: 20.1%

Question: For `C=CCNC(=O)c1ccc(CSc2nc3ccccc3s2)cc1`, which Potency is on record?
Answer: inconclusive: 6.31 µM [inhibitor, full curve]

Question: Which Potency does the source give for `Cc1ccccc1OCC(=O)NNC(=O)C1CCCCC1C(=O)O` (configuration not stated) here?
Answer: inconclusive: 28.2 µM [inhibitor, single point]

Question: Which Potency does the source give for `O=C(c1cc([N+](=O)[O-])ccc1Cl)N1CCc2ccccc21` here?
Answer: inconclusive: 20 µM [inhibitor, partial curve, poor fit]

Question: For `CCc1ccc(NC(=O)C/C(C)=N/NC(=O)COc2ccc(C)cc2Br)cc1`, which Potency is on record?
Answer: inconclusive: 0.282 µM [inhibitor, full curve, poor fit]

Question: With `CC(c1ccccc1)c1nnc(N)s1` (configuration not stated) as the molecule, how does the Potency read?
Answer: inconclusive: 8.91 µM [inhibitor, partial curve, poor fit]

Question: With `Cc1ccc(CN2CCN(C3CCCC3)C(CCO)C2)s1` (configuration not stated) as the molecule, how does the Potency read?
Answer: inconclusive: 35.5 µM [inhibitor, single point]

Question: With `CSc1nnc(-c2cc3c(s2)-c2ccccc2CC3)o1` as the molecule, how does the Potency read?
Answer: inconclusive: 6.31 µM [inhibitor, partial curve, poor fit]

Question: With `CN1CCc2c1nc1ccccc1c2N=C1CCCN1Cc1ccccc1` as the molecule, how does the Potency read?
Answer: inconclusive: 22.4 µM [inhibitor, single point]

Question: With `CC(=O)Oc1ccc(-c2nc(-c3cccnc3)no2)cc1` as the molecule, how does the Potency read?
Answer: inconclusive: 2.51 µM [inhibitor, partial curve, poor fit]

Question: Which Potency does the source give for `CCn1c(SCC(=O)Nc2nc(-c3ccc(C)cc3)cs2)nnc1-c1ccccc1` here?
Answer: inconclusive: 7.94 µM [inhibitor, partial curve]

Question: For `Cc1ccc(S(=O)(=O)c2nc(S(C)(=O)=O)sc2N2CCOCC2)cc1`, which “activity, negative = inhibition” value is on record?
Answer: inactive: 2.73%

Question: For `Cc1ccc(C(=O)N(Cc2ccco2)Cc2ccco2)cc1`, which Potency is on record?
Answer: inconclusive: 0.251 µM [inhibitor, full curve, poor fit]

Question: Which Potency does the source give for `Cc1ccc(C(C)C)c(OCC(=O)Nn2c(C)nc3ccccc3c2=O)c1` here?
Answer: inconclusive: 35.5 µM [inhibitor, single point]

Question: Which Potency does the source give for `CCOc1cccc(CC(=O)NCc2ccc3c(c2)CCN3C(=O)c2ccc(F)cc2)c1OCC` here?
Answer: inconclusive: 4.47 µM [inhibitor, single point]

Question: With `c1ccc(CN2CCC(Nc3nc(-c4ccccc4)nc4ccccc34)CC2)cc1` as the molecule, how does the Potency read?
Answer: inconclusive: 35.5 µM [inhibitor, single point]

Question: For `CCC(C)Oc1ccc(C(=O)Nc2ccc(CN3CCOCC3)cc2)cc1` (configuration not stated), which “activity, negative = inhibition” value is on record?
Answer: inactive: -21%

Question: For `O=C(Nc1nccs1)C1CC(=O)N(c2ccccc2)C1` (configuration not stated), which “activity, negative = inhibition” value is on record?
Answer: inactive: 21.5%

Question: For `O=C1CCC[C@@H]2C[C@@]3(C[C@@H]4CCN1[C@H]24)Nc1cc([N+](=O)[O-])ccc1NC3=NC1CCCCC1`, which Potency is on record?
Answer: inconclusive: 2.82 µM [inhibitor, full curve]

Question: With `O=C(CSc1nnc(-c2ccncc2)n1-c1ccccc1)Nc1ccc(Cl)c(Cl)c1` as the molecule, how does the Potency read?
Answer: inconclusive: 3.16 µM [inhibitor, partial curve, poor fit]

Question: For `O=C(CN1c2cccc3cccc(c23)S1(=O)=O)N1CCN(c2ccccc2)CC1`, which “activity, negative = inhibition” value is on record?
Answer: inactive: -28.2%
